Laboratory results published in patent US11000038B2, “Pyridone compounds and agricultural and horticultural fungicides containing the same as active ingredients” (priority 2017, dated 2021).

How the values were obtained:
[1] = tested on: grape downy mildew fungus (Plasmopara viticola); assay: Test Example G: grape downy mildew, spray treatment of grape plants; details: grape downy mildew, 250 ppm spray (2.5 ml/pot), 7 to 10 days after inoculation
[2] = tested on: gray mold fungi (Botrytis cinerea); assay: Test Example B: tomato gray mold, spray treatment of tomato plants; details: tomato gray mold, spray treatment of tomato plants
[3] = tested on: cabbage Alternaria sooty spot fungi (Alternaia brassicicola); assay: Test Example C: cabbage Alternaria sooty spot, spray treatment of cabbage plants; type: in vivo; details: cabbage Alternaria sooty spot, spray treatment of cabbage plants
From the text: [Test Example C] Cabbage Alternaria Sooty Spot
Test plants (cabbage variety: Shikidori) were cultivated until the cotyledons extended after the sowing of seeds.
<Control Value> Control value=100{1−(n/3)}

[4] = tested on: barley powdery mildew fungi (Blumeria graminis f. sp. hordei); assay: Test Example D: barley powdery mildew, spray treatment of barley plants; details: barley powdery mildew, spray treatment of barley plants
[5] = tested on: wheat brown rust fungi (Puccinia recondita); assay: Test Example E: wheat brown rust, spray treatment of wheat plants; type: in vivo; details: wheat brown rust, spray treatment of wheat plants

Row | Structure (SMILES) | Test G control value [1] | Test B control value [2] | Test C control value [3] | Test D control value [4] | Test E control value [5]
1 | CCCCn1cc(Br)c(=O)c(Cl)c1-c1c(F)cc(F)cc1F [Compound 233] | L (L shows the control value of 50% or less) | H (H shows the control value of more than 50%) | H (H shows the control value of more than 50%) | L (L shows the control value of 50% or less) | H (H shows the control value of more than 50%)
2 | CCCCn1cc(Br)c(=O)c(Br)c1-c1c(F)cc(F)cc1F [Compound 234] | L (L shows the control value of 50% or less) | H (H shows the control value of more than 50%) | H (H shows the control value of more than 50%) | L (L shows the control value of 50% or less) | H (H shows the control value of more than 50%)
3 | Cc1ccccc1-n1cc(Br)c(=O)c(Cl)c1-c1ccc(F)cc1 [Compound 235] | H (H shows the control value of more than 50%) | H (H shows the control value of more than 50%) | H (H shows the control value of more than 50%) | L (L shows the control value of 50% or less) | H (H shows the control value of more than 50%)
4 | Cc1ccccc1-n1cc(Br)c(=O)c(Br)c1-c1ccc(F)cc1 [Compound 236] | L (L shows the control value of 50% or less) | H (H shows the control value of more than 50%) | H (H shows the control value of more than 50%) | L (L shows the control value of 50% or less) | H (H shows the control value of more than 50%)
5 | Cc1ccccc1-n1cc(Br)c(=O)c(Cl)c1-c1ccc(C#N)cc1 [Compound 237] | L (L shows the control value of 50% or less) | L (L shows the control value of 50% or less) | L (L shows the control value of 50% or less) | L (L shows the control value of 50% or less) | L (L shows the control value of 50% or less)
6 | Cc1ccccc1-n1cc(Br)c(=O)c(Br)c1-c1ccc(C#N)cc1 [Compound 238] | L (L shows the control value of 50% or less) | L (L shows the control value of 50% or less) | L (L shows the control value of 50% or less) | L (L shows the control value of 50% or less) | L (L shows the control value of 50% or less)
7 | Cc1ccc(Cl)cc1-n1cc(Br)c(=O)c(Br)c1-c1c(F)cc(F)cc1F [Compound 239] | L (L shows the control value of 50% or less) | H (H shows the control value of more than 50%) | H (H shows the control value of more than 50%) | L (L shows the control value of 50% or less) | H (H shows the control value of more than 50%)
8 | Cc1ccc(Cl)cc1-n1cc(Cl)c(=O)c(Br)c1-c1c(F)cc(F)cc1F [Compound 240] | H (H shows the control value of more than 50%) | H (H shows the control value of more than 50%) | H (H shows the control value of more than 50%) | L (L shows the control value of 50% or less) | H (H shows the control value of more than 50%)
9 | COc1ccc(-c2c(C)c(=O)c(C)cn2-c2ccccc2C)cc1 [Compound 242] | L (L shows the control value of 50% or less) | H (H shows the control value of more than 50%) | H (H shows the control value of more than 50%) | L (L shows the control value of 50% or less) | H (H shows the control value of more than 50%)
10 | COC(=O)c1ccc(-c2c(C)c(=O)c(C)cn2-c2ccccc2C)cc1 [Compound 243] | L (L shows the control value of 50% or less) | H (H shows the control value of more than 50%) | H (H shows the control value of more than 50%) | L (L shows the control value of 50% or less) | L (L shows the control value of 50% or less)
11 | Cc1cn(CC(C)C)c(-c2c(F)cc(F)cc2F)c(C)c1=O [Compound 245] | L (L shows the control value of 50% or less) | H (H shows the control value of more than 50%) | H (H shows the control value of more than 50%) | H (H shows the control value of more than 50%) | H (H shows the control value of more than 50%)
12 | Cc1ccc(Br)cc1-n1cc(Br)c(=O)c(Cl)c1-c1c(F)cc(F)cc1F [Compound 247] | L (L shows the control value of 50% or less) | H (H shows the control value of more than 50%) | H (H shows the control value of more than 50%) | L (L shows the control value of 50% or less) | H (H shows the control value of more than 50%)
13 | Cc1ccc(Br)cc1-n1cc(Br)c(=O)c(Br)c1-c1c(F)cc(F)cc1F [Compound 248] | L (L shows the control value of 50% or less) | H (H shows the control value of more than 50%) | H (H shows the control value of more than 50%) | L (L shows the control value of 50% or less) | H (H shows the control value of more than 50%)
14 | Cc1ccc(Br)cc1-n1cc(Cl)c(=O)c(Br)c1-c1c(F)cc(F)cc1F [Compound 249] | H (H shows the control value of more than 50%) | H (H shows the control value of more than 50%) | H (H shows the control value of more than 50%) | L (L shows the control value of 50% or less) | H (H shows the control value of more than 50%)
15 | Cc1ccccc1-n1cc(C)c(=O)c(C)c1-c1c(F)cncc1F [Compound 251] | L (L shows the control value of 50% or less) | H (H shows the control value of more than 50%) | H (H shows the control value of more than 50%) | L (L shows the control value of 50% or less) | H (H shows the control value of more than 50%)
16 | Cc1ccccc1-n1cc(C)c(=O)c(C)c1-c1c(Cl)cncc1Cl [Compound 252] | L (L shows the control value of 50% or less) | H (H shows the control value of more than 50%) | H (H shows the control value of more than 50%) | L (L shows the control value of 50% or less) | H (H shows the control value of more than 50%)
17 | Cc1ccccc1-n1cc(C)c(=O)c(C)c1-c1ccccc1 [Compound 253] | H (H shows the control value of more than 50%) | H (H shows the control value of more than 50%) | H (H shows the control value of more than 50%) | L (L shows the control value of 50% or less) | H (H shows the control value of more than 50%)
18 | Cc1cn(CC#N)c(-c2c(F)cc(F)cc2F)c(C)c1=O [Compound 255] | L (L shows the control value of 50% or less) | L (L shows the control value of 50% or less) | L (L shows the control value of 50% or less) | L (L shows the control value of 50% or less) | H (H shows the control value of more than 50%)
19 | Cc1ccc(-n2cc(Br)c(=O)c(Cl)c2-c2c(F)cc(F)cc2F)c(C)c1 [Compound 256] | L (L shows the control value of 50% or less) | H (H shows the control value of more than 50%) | H (H shows the control value of more than 50%) | L (L shows the control value of 50% or less) | H (H shows the control value of more than 50%)
20 | Cc1ccc(-n2cc(Br)c(=O)c(Br)c2-c2c(F)cc(F)cc2F)c(C)c1 [Compound 257] | L (L shows the control value of 50% or less) | H (H shows the control value of more than 50%) | H (H shows the control value of more than 50%) | L (L shows the control value of 50% or less) | H (H shows the control value of more than 50%)
21 | Cc1ccc(-n2cc(Cl)c(=O)c(Br)c2-c2c(F)cc(F)cc2F)c(C)c1 [Compound 258] | L (L shows the control value of 50% or less) | H (H shows the control value of more than 50%) | H (H shows the control value of more than 50%) | L (L shows the control value of 50% or less) | H (H shows the control value of more than 50%)
22 | Cc1ccc(-n2cc(Cl)c(=O)c(Cl)c2-c2c(F)cc(F)cc2F)c(C)c1 [Compound 259] | L (L shows the control value of 50% or less) | H (H shows the control value of more than 50%) | H (H shows the control value of more than 50%) | L (L shows the control value of 50% or less) | H (H shows the control value of more than 50%)
